# Data taken from article PMC4336329 (PLoS ONE, 2015).
# Hit rate of the full screen: of about 310,000 compounds, about 2,200 (0.71%) showed an effect of 50% or more. Effects have a minus sign here. The list shows a part of the results.
# Molecular target: human ether-à-go-go-related gene (hERG) potassium channel (human, UniProt Q12809)
# Assay: primary screen, population patch clamp on CHO cells stably expressing hERG
# Chain of human ether-à-go-go-related gene (hERG) potassium channel (Q12809 whole entry, looked up): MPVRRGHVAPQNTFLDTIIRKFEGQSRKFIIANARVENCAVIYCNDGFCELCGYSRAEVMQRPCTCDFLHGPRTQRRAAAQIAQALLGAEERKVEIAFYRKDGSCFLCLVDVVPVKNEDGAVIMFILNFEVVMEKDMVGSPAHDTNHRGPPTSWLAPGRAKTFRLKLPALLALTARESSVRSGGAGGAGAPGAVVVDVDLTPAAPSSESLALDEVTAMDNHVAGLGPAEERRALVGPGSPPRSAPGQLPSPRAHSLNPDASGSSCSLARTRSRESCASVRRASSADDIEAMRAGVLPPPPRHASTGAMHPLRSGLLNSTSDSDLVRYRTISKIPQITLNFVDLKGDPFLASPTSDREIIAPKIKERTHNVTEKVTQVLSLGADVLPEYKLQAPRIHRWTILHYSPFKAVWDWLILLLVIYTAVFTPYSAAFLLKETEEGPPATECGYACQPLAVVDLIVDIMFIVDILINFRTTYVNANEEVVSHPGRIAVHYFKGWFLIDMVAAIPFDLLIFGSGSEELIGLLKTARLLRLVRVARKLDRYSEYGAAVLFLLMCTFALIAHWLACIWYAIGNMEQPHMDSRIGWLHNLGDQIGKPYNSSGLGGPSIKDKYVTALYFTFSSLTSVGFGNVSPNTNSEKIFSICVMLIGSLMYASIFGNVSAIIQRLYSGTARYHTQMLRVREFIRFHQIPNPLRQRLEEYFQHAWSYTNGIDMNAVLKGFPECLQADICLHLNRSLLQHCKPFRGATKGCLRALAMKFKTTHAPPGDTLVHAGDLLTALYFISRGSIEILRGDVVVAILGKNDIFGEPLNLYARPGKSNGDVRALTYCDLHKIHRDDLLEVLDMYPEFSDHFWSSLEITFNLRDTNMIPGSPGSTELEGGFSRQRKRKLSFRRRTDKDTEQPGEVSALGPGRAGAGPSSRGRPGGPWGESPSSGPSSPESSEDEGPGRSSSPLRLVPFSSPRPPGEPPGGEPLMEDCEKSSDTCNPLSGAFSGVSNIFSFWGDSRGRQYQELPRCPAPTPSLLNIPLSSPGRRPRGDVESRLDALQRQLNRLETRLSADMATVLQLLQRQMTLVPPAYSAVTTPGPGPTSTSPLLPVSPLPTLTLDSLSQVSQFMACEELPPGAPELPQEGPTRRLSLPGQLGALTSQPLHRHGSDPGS
row,Structure (SMILES),"hERG current change (%, negative = inhibition) at 1uM [%]"
1,CCCCOc1ccc(C(=O)NCC(=O)N(C)Cc2nc3ccccc3c(=O)[nH]2)cc1,1.71
2,N/C(Cc1nc(-c2ccc(F)cc2)cs1)=N\O,10.2
3,O=S(=O)(NOCc1ccc(Cl)cc1)c1ccc(Cl)cc1,18.6
4,O=C(CCC(=O)OCc1ccc(Br)cc1)Nc1ccccc1,7
5,CC1CCCN(C2(O)C(=O)Nc3ccc([N+](=O)[O-])cc32)C1 (stereo not shown),3.72
6,O=C(COC(=O)C1COc2ccccc2O1)Nc1cccc(F)c1 (stereo not shown),0.464
7,COc1ccc(NC(=O)c2cc(-c3cc(OC)c(OC)c(OC)c3)nc3ccccc23)c(OC)c1,11.3
8,COc1ccccc1CNC(=O)C1CCC(CNS(=O)(=O)c2ccccc2)CC1 (stereo not shown),14.5
9,Cc1c(NC(=O)c2ccc(Cl)nc2)cccc1-c1nc2cccnc2s1,-11.6
10,COCCNC(=O)c1c(NC(=O)c2nc(SC)ncc2Cl)sc2c1CCCC2,19.7
11,COc1ccc(-c2cc(C(F)(F)F)nc(NCc3cccs3)n2)cc1,5.4
12,COc1ccc(C(=O)NCC(=O)OCC(=O)NC2CCCC2)cc1,9.44
13,O=C(O)CCC(=O)Nc1ccc(N2CCCCC2)c(C(=O)O)c1,12.1
14,CCOc1ccc(-n2cc(-c3ccccc3)c3c(N4CCOCC4)ncnc32)cc1,17.7
15,CC(=O)Nc1ccc(C(=O)OCC(=O)NCc2ccc(Cl)cc2)cc1,6.99
16,CCCNC(=O)c1ccc(N2CCC3(CC2)CC(c2ccccc2)=NO3)c(NC(=O)c2cccc(C)c2)c1,2.09
17,Cc1cccc(NC(=O)COC(=O)CSc2ccccc2)c1C,9.01
18,CCOC(=O)c1c(NC(=O)c2ccc(S(=O)(=O)N3CCOCC3)cc2)sc2c1CCN(C)C2,-3.23
19,CCCNc1nc2c(c(=O)n(C)c(=O)n2C)n1Cc1cccc(C)c1,1.2
20,COc1ccc(NC(=O)CN(C)CC(=O)NC2CCC(C)CC2)cc1 (stereo not shown),12
21,COC(=O)N/N=C/c1cc(Cl)cc(Cl)c1OCc1ccccc1,3.6
22,Fc1ccccc1-n1cn[nH]c1=S,20.4
23,Cc1ccc(-n2cc(CNCCc3cscn3)c(-c3ccc(F)cc3)n2)cc1,20.3
24,Cc1ccc(CNC(=O)COC(=O)CSc2cc(C)c(Br)cc2C)cc1,5
25,CC(=O)Nc1ccc(S(=O)(=O)NCCCc2ccccc2)cc1,14.1
